# Measurements taken from PubChem BioAssay (NCI).
#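 Compound exposure: 48 hours, 5 concentrations, 96-well plates. GI50: concentration for 50% inhibition of growth. TGI: concentration producing complete growth inhibition.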 Bridge positions count the residues as written; N and C are the ends. Square brackets hold non-standard residues; d marks the D form. Peptide text beside a SMILES is read from it. * marks the point of attachment. ξ: configuration not given here. ξDab(CH2SO3H) = NC(CCNCS(=O)(=O)O)C(=O)O; Heptanoyl(6-Me) = CC(C)CCCCC(=O)*; Dab = NCC[CH](N)C(=O)O
# Tested on: NCI-H322M lung
# Test: DTP human tumour cell line panel, 48 h
SMILES,TGI,GI50
C/C=C1\CC2C(=O)CCC2C2c3ccccc3OC12 (stereo not drawn),> 100 µM,–
CC(C)(C)[Si](C)(C)OC1[C@@H](O[Si](C)(C)C(C)(C)C)[C@@H](CNC(=O)NC(=O)CF)O[C@H]1n1cnc2c(NC(=O)Nc3ccccc3)ncnc21 (stereo partly drawn),> 50 µM,> 50 µM
O=[N+]([O-])c1ccc(Oc2c(Cl)cc(S(=O)(=O)/N=C(\NO)Nc3ccc(Cl)cc3)cc2Cl)c(Cl)c1,28 µM,–
N=C(N)SCc1c2ccccc2c(CSC(=N)N)c2ccccc12,30.9 µM,12.5 µM
Cc1ccc([N+](=O)[O-])cc1S(=O)(=O)Nc1ccc(C2=NOC(c3cccs3)C2)cc1 (stereo not drawn),89 µM,–
O=C(CCCN1CCC2(CC1)CC(=O)N(N1CCOCC1)C2=O)c1ccc(F)cc1,> 100 µM,–
O=C(SC1=NCCN1)c1cccc2ccccc12,> 100 µM,–
O=C1C=CC2(C=C1)CCNC1=C2C(=O)c2ccccc2C1=O,> 100 µM,–
O=[N+]([O-])c1cc([N+](=O)[O-])c(/C=C/c2ccc(Cl)c(Cl)c2)cc1/C=C/c1ccc(Cl)c(Cl)c1,70.9 µM,–
NC1CCCCC1N.O=[Se]([O-])[O-].[Pt+4] (stereo not drawn),> 36.9 µM,0.914 µM
N#C[Se]CCN1C(=O)C2C(C1=O)[C@H]1C=C[C@@H]2S1 (stereo partly drawn),5.5 µM,1.75 µM
C[C@]12CC[C@@H]3c4cc(OC(F)F)c(OS(N)(=O)=O)cc4CC[C@H]3[C@@H]1CC[C@@H]2OS(N)(=O)=O,18.9 µM,2.12 µM
O=c1c2ccccc2nc(/C=C(\O)c2ccncc2)n1-c1ccc(Cl)cc1,> 100 µM,–
OCCCNc1ccnc2cc(Cl)ccc12,> 100 µM,–
C=C/C(C)=C\CC1[C@](C)(O)CC[C@H]2C(C)(C)C(O)CC[C@]12C (stereo partly drawn),> 100 µM,–
O=C(NNC1=NCCCCN1)Nc1ccc(Cl)cc1,> 100 µM,–
CC/C(=C(/c1ccc(O)cc1)c1ccc(OCCN)cc1)c1ccccc1,14.4 µM,4.59 µM
Cn1cc(C2=C(c3c4n(c5ccccc35)CCC(CN)C4)C(=O)NC2=O)c2ccccc21 (stereo not drawn),7.32 µM,3.66 µM
O=c1/c(=C/c2ccc([N+](=O)[O-])o2)sc2n1[C@@H](c1ccc(Cl)cc1)C=C(c1cc(F)c(Cl)cc1Cl)N=2,36.7 µM,–
CC[C@@H](C(=O)[C@H](C)[C@H](O)[C@@H](C)[C@H]1O[C@H]([C@@H](CC)C(=O)N(CC)CC)CC[C@H]1C)C1O[C@]2(C=C[C@@H](O)[C@]3(CC[C@@](C)([C@H]4CC[C@](O)(CC)[C@H](C)O4)O3)O2)[C@H](C)C[C@@H]1C (stereo partly drawn),10.8 µM,2.91 µM
NC(=O)c1cccc(N=c2oc3ccc(Br)cc3cc2-c2nc3ccccc3[nH]2)c1,29 µM,–

SMILES,TGI,GI50
CCC(C)C1NC(=O)C(CCNCS(=O)(=O)O)NC(=O)C(NC(=O)C(CCNCS(=O)(=O)O)NC(=O)C(NC(=O)C(CCNCS(=O)(=O)O)NC(=O)CCCCC(C)C)C(C)O)CCNC(=O)C(C(C)O)NC(=O)C(CCNCS(=O)(=O)O)NC(=O)C(CCNCS(=O)(=O)O)NC(=O)C(C(C)CC)NC1=O (stereo not drawn) ({Heptanoyl(6-Me)}-[ξDab(CH2SO3H)]T[ξDab(CH2SO3H)][Dab][ξDab(CH2SO3H)]II[ξDab(CH2SO3H)][ξDab(CH2SO3H)]T; lactam 4-C; configuration not given here),> 25 µM,17.6 µM
Cc1nc(N2N=C(c3ccc(Cl)cc3)CCC2=O)sc1[N+](=O)[O-],> 100 µM,–
COc1ccc(Nc2cc(C)nc(NCc3ccccc3)n2)cc1,18.9 µM,5.09 µM
Cc1c2c(OCC(O)CN3CCN(c4ccccc4)CC3)nn(C)c(=O)c2c(C)n1-c1ccccc1 (stereo not drawn),> 100 µM,–
N=N/C(=C\c1c(O)[nH]c2ccccc12)c1ccccc1,> 100 µM,–
CCCCCCCCCCCC(=O)N1CCN(C(C)=O)CC1,> 100 µM,> 100 µM
O=C1NC(=O)C(C(=O)C(=O)Nc2ccc(Cl)cc2Cl)C(=O)N1,> 100 µM,–
CC1(C)CC[C@]2(C(=O)O)CC[C@]3(C)C(=CC[C@@H]4[C@@]5(C)C[C@H](O)[C@H](O)[C@@](C)(C(=O)O)[C@@H]5CC[C@]43C)[C@@H]2C1,> 100 µM,–
COC(=O)c1ccccc1CC(Cc1ccc2c(c1)CCC2)C(=O)OC (stereo not drawn),> 100 µM,–
Cn1c(=O)c2c(nc3sc4c(n32)C(=O)c2c(O)ccc(O)c2C4=O)n(C)c1=O,> 100 µM,–
CC1=NC2c3c(-c4ccc(Cl)cc4)cn(-c4ccc(C)cc4)c3N=CN2N1 (stereo not drawn),> 100 µM,–
COC(=O)C1=CO[C@@H](OC2OC(CO)C(O)C(O)C2O)[C@H]2[C@@H](C)[C@@H](O)[C@@H](O)[C@@H]12 (stereo partly drawn),> 100 µM,–
C=C1CCCC(C)(C)C1CCC1(C)CCC(C(C)C(=O)OC)OO1 (stereo not drawn),> 25 µM,–
C=C1C(=O)O[C@H]2C[C@@H]1CC/C(C)=C/CC/C(C)=C/CC[C@@]2(C)O,> 100 µM,> 100 µM
CCCCCCCCCCCCSC1=C(Cl)C(=O)C(OC)=C(OC)C1=O,22.4 µM,3.87 µM
OCCCNc1ncnc2[nH]ncc12,> 100 µM,–
CN(C)CCCNC(=O)CCNC(=O)c1cc(NC(=O)c2cc(NC(=O)c3cc(NC(=O)c4nccn4C)cn3C)cn2C)cn1C,> 100 µM,–
CN(C)CCCCC(C(=O)CBr)(c1ccccc1)c1ccccc1,16.2 µM,4.1 µM
C#CCN(Cc1nc2cc(C(F)(F)F)ccc2nc1-c1ccccc1)c1ccc(C)cc1,> 45.7 µM,19.8 µM
Cc1ccc(-c2cc3c4c(nc5ccccc53)C(=O)c3cccnc3-c4n2)cc1,12 µM,3.73 µM
CC1(C)CC(=O)C2=C(C1)NC1=C(C2)C(=O)CC(C)(C)C1,> 100 µM,–
